Assay results reported in the supplement of paper PMC10681739.
± gives the standard deviation of the averaged measurements. In all, about 4,000 sequences were measured (“arbitrary fluorescence units”: median about 830, highest 2% from about 6,500 on). This part holds few or none of the hits.
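Further: Full-length recombinant human RUNX1 bound to double-stranded DNA microarray spots, detected with an Alexa488-labelled secondary antibody after the anti-RUNX1 primary, read as scanned spot fluorescence.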

These sequences were tested against RUNX1 (UniProt Q01196) (assay: RUNX1 binding intensity (PBM fluorescence), RUNX1 alone (arbitrary fluorescence units); higher = stronger binding). Details: RUNX1 concentration 2 nM; ETS1 concentration 0 nM.
UniProt Q01196, sequence (Q01196 whole entry): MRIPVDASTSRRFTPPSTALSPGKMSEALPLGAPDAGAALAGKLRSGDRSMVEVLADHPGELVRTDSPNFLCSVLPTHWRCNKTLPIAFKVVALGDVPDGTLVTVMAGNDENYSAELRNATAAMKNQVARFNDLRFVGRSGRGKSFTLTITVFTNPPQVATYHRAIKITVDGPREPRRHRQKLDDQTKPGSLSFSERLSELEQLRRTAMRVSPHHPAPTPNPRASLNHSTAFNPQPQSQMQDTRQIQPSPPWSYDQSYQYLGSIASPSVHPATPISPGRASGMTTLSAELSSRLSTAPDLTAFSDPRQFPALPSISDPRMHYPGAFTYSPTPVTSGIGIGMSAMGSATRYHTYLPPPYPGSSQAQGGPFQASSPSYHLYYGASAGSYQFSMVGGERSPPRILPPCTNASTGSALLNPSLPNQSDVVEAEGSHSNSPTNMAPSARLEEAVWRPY
Experimental: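 gcPBM on 36-bp genomic-derived probes (partner site mutated) containing one RUNX1 site and no ETS1 site. Recombinant human RUNX1 (2 nM) was incubated alone or with ETS1 (25 nM) and detected by anti-RUNX1 antibody fluorescence. Values are medians over 4 replicate spots (not normalised). The probes sit in constant array flanks that are not printed.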
In the case of ACACCGCTCATGAAGACAAAGCCACACCTCACACCA, the RUNX1 binding intensity is reported as 1270.
AAGGCTGACGAAGGGAAAATTGTGGTTGGGCAGAGG showed an RUNX1 binding intensity of 995.
In the case of GTACGTCTCCTCATTGACTGGCCAACCACTATCATG, the RUNX1 binding intensity is reported as 950.
In the case of TTGTGGTTGCCGGGGATCGCTGTTGCCAGCCTGACT, the RUNX1 binding intensity is reported as 738.
Work on GTGAGCCACAAGGGCCCCTGGGTCCTTGCTCCAAAC yielded an RUNX1 binding intensity of 641 ± 9.1.
In the case of ATAAAGAAAACCACTAACCAGTAACATACGGCTCAG, the RUNX1 binding intensity is reported as 1040.
GTGACTCCGCGGTGTACAGCTGCCTTCACCCCACTT gave an RUNX1 binding intensity of 976.
For CGTGTGTGGGGGCGCAAGGCAGCGGCAGCTTCGGCC, the RUNX1 binding intensity was 853.
Sequence CTGAGCCGTATGTTACTGGTTAGTGGTTTTCTTTAT has an RUNX1 binding intensity of 972.
In the case of CTGAGCAGTGTGGTTGGCCCTCACCTCCTCATCGGC, the RUNX1 binding intensity is reported as 866.
In the case of TAATTTTTTTTAACCACTTCCAGGAGATCTTGCCCA, the RUNX1 binding intensity is reported as 1080.
In the case of TTGCGGTTGGCAGACAGCAGAGCAAAGGCAATTGGG, the RUNX1 binding intensity is reported as 881.
In the case of TGAAGTTGTGGGGTGTTTTTATCAGCAGCAAACAGC, the RUNX1 binding intensity is reported as 751.
With AATGGCGGGAGGTAAGAGGAATGTGGGCCTGACTGC the RUNX1 binding intensity was 701.
With TGGAACCATCACCCACAACCAGAGGAATCTGTCTGG the RUNX1 binding intensity was 824.
Work on TTATCTGTGGTTCTTTTATGGGGTGGGCTGCCTCTG yielded an RUNX1 binding intensity of 1370.
CGGGGCTTACGGCGCGCTGCCTTGTGGGCACGGTAG was tested, and the RUNX1 binding intensity was 703.
CACTCCCCTCCCGCGGTCACACTTCAGGCGGCCACC was tested, and the RUNX1 binding intensity was 1460.
In the case of AGATGGTGTGGCTGGATGGGGACCACATTGAAGAGA, the RUNX1 binding intensity is reported as 730.
Work on CTGTGGTTGGGCTGTGTAGGTGCGGATTGCCTGGCT yielded an RUNX1 binding intensity of 730.
GCGAATCTGCGGCATCCAACATGGCGTATGGAGTCT showed an RUNX1 binding intensity of 721.
CTCTTGGCGGGCGTTCCACATTACCACTGACTTTGT showed an RUNX1 binding intensity of 1070.
Sequence CTAGGCAGTGTCTGTAGGCGCAGCTGCGGGTCCGGG has an RUNX1 binding intensity of 689.
For GTGTACGGCAGCTGAGAGGGCCCGCGGGTAGGCATG, the RUNX1 binding intensity was 686.
GTAAGAACCACAACCCCTCGAGAGGCAGCACTTTTG showed an RUNX1 binding intensity of 1020.
Work on CTCCACTCGCGGTTTCGTGCCTCCCTTCAGTGCCGA yielded an RUNX1 binding intensity of 2790.
With CCTACCGCGGAGAGAAGGCTCTTTATCTCCTAGCCG the RUNX1 binding intensity was 893.
ACGCCCGCTGACCACACTGGCGACGTCCCTCTCTGT showed an RUNX1 binding intensity of 1400.
In the case of AGCCCTAAACAACCGCTGAACCACTTGCTGTCACTG, the RUNX1 binding intensity is reported as 989.
With CGATTCTGGATTGGTCCAGTTCCAGCGCCGCAGCCC the RUNX1 binding intensity was 724.
CGGGCCCGACGGACACCATGTTTGTGGCTCGCAGCA gave an RUNX1 binding intensity of 705.
Sequence AGGGACGAGGCAAGTCGTGGTGGTCGCGAGGGAGCC has an RUNX1 binding intensity of 673.
Sequence CCCCTCAGCTCCCGGGTGCTGCGGCCGCGGCCGAGA has an RUNX1 binding intensity of 931.
Work on GCCCGGCTTACCCGCGTCGCGGAGGTCCGCTCTCTG yielded an RUNX1 binding intensity of 822.
Sequence TCTGGACCCGCAGGCCGCTCAGATTCCCGGTGTCCA has an RUNX1 binding intensity of 829.
With GTGCGGTGTGCCTCGGGTCGGTGCACCGTCCTGGAT the RUNX1 binding intensity was 720.
For TGGATTAACCGCTAAACATAGTTTACTGTTGTGTAA, the RUNX1 binding intensity was 1170.
CTGTGCTGGCCAGCGGTGGGGATCCAGCATTCCTAT was tested, and the RUNX1 binding intensity was 703.
Work on TCCCCCACTTGCTGGCAGCAGCAGTGTGGTGAGGAG yielded an RUNX1 binding intensity of 746.
Work on CGACCTTGCGGGGCGGTGCAAGCTGGCAGAACCCGA yielded an RUNX1 binding intensity of 775.
AGGCAGGGAGGTGGCGCAGAGGAGACCACAGGACAC showed an RUNX1 binding intensity of 788.
CAGGGGCCGCAGTCGCGCTCCTCGCGGCCGTAAGAG was tested, and the RUNX1 binding intensity was 705.
With GTCTTAAGCAAAGCCACACTTACTTTCTAAGCTGTT the RUNX1 binding intensity was 952.
GAGGCGACCCACCTCCGCTGTGCGGGGGCAACTGCA was tested, and the RUNX1 binding intensity was 710.
For CCAAACGCTTGCCGGTACGTGTTGCTGCGGGAACCC, the RUNX1 binding intensity was 728.
CAGCCCTCTTGCTGCCTGTCTGTGGCTGGTGAGGTT was tested, and the RUNX1 binding intensity was 855.
Sequence CCAGCCACTTTCGCTCGTCCGCCTAATACCGCGCCT has an RUNX1 binding intensity of 1370.
Work on CCTGTGGTAATCCTTACCGTGGCGAGTGCCGCGCTC yielded an RUNX1 binding intensity of 797.
GAATGGAACTGGGGGCTGGGCCGTGTGGGTTTGTGA showed an RUNX1 binding intensity of 839.
For TCCTGGCTGCCCGCAAGGCCAGAAAGAGCGAAAACA, the RUNX1 binding intensity was 937.
AGAGCGCGCCCTCCGTGACGCCGCAAGAGCGCGCCT gave an RUNX1 binding intensity of 730.
GGAGGAGTGGTTTCTGAGAGAAGGCAGCACCTGCCC showed an RUNX1 binding intensity of 757.
CCAGCATGTGGGCTCTGAACCTGAAGCAACAGGCTC was tested, and the RUNX1 binding intensity was 796.
With GAGGAGATTCCCGGCCCCCATCCCCGCAGCGACCTT the RUNX1 binding intensity was 840.
CGGGAGAGGAATCCAGGTTGGACAGAGGTGGTTTCA showed an RUNX1 binding intensity of 714.
ACCCCACCAACCGCCTCCACTTACGGCACCCACGAG showed an RUNX1 binding intensity of 1450.
Work on TGGCGGCTGTGGGGATTTGCCTGAAGGTTAATAATG yielded an RUNX1 binding intensity of 713.
TTTCTTACCACTAGGGGACGCTAGTTCCCTGAGGCT was tested, and the RUNX1 binding intensity was 905.
CAGTTTATGCTGTGAGAGCCTTGTGGTTCCTACTAA gave an RUNX1 binding intensity of 764.
GCCTTCTGGGACATGTAGTTCCCCGTCACCGCGAAG gave an RUNX1 binding intensity of 868.
In the case of CACCCTCAACTTGCTGACCCATAAACCACAAGCTAT, the RUNX1 binding intensity is reported as 4340.
Work on TCGGGCTGCGGTCCTACGGCAATTCCCGTGGGAGGA yielded an RUNX1 binding intensity of 847.
AGCACAGCCCGCAGCCATGGGTTCAGCCGTAAGCCC showed an RUNX1 binding intensity of 846.
Sequence CAGCTCCCGGGCTAATTAGCAGTCGCGGTGTGCCGC has an RUNX1 binding intensity of 766.
For TCACTGTGGTATCTGGAAGCAAAAGGCAATGTGCTC, the RUNX1 binding intensity was 811.
CCGGGGTAAACCACGACACGACTCCCTGCCGTGTGG gave an RUNX1 binding intensity of 886.
Work on GCCCTGCGGGCCCCGTTCCCGCCATTCCTTCATGCC yielded an RUNX1 binding intensity of 1370.
TCCGAAAGTCGGAGGAACACCCCAGCCGCCGCAGCC was tested, and the RUNX1 binding intensity was 747.
GCACTGCGGGTCGGACATAGTGACGCACTTTCGCCC gave an RUNX1 binding intensity of 718.
For CCACCTCCTTCGGACGCCGCCCGCAACTGAGCATGC, the RUNX1 binding intensity was 1040.
In the case of CAGATTCCCGTAAAGGGGGACATGTAGCCGCAAAAG, the RUNX1 binding intensity is reported as 829.
GAGAAAGCAGCGCCGCAGCGCGCCTTCGGCCACGCC showed an RUNX1 binding intensity of 737.
With GCCTGTTTGTTCCCCCCCCGCGGCAACCGCTGCTCG the RUNX1 binding intensity was 1210.
CCCGCCGCCACAAGGAGACGCCCGAGGACCTCCCTC was tested, and the RUNX1 binding intensity was 926.
GAAGAAGTCAAGAAATGCTGCCGCAGCAGCCAGCCC showed an RUNX1 binding intensity of 765.
Sequence GTCTCGCACCGCGAACACTGAGCTGAACGGAGATGT has an RUNX1 binding intensity of 710.
With TCCCCCGTTTGGTTTTCAGGCCCTCTTCATGGAGCT the RUNX1 binding intensity was 988.
With GGACCGAAAGTAGGTTTCTACCCGACCGCATTTTAC the RUNX1 binding intensity was 885.
For CTGAAAAACTGGAAGTGGGTGGTTTGAAACGTAAAT, the RUNX1 binding intensity was 842.
With CTCGGCCTGCGGCGGGGTAGAGCGCCGGCAACGGCT the RUNX1 binding intensity was 741.
